From PubChem BioAssay (Tox21)
“And” between values parts separate entries of the source, which are not always exact repeats. Identical values can stand only once. This list was built around the results that the source calls inconclusive (neither active nor inactive); the mix of calls is not that of the screen. For part of these data: A potency beside an inconclusive call is a rough fit, not a confirmed value. Where a structure was tested more than once in an assay, its records may differ in their call. The source made the active and inactive calls. Unless noted, the call rests on the fitted dose curve; in most records, active means well fitted curve in the direction sought with a large enough effect in the repeat runs; inconclusive means weak or mixed curves; inactive means no such curve, though single readings can be large; an effect the other way counts as inactive or inconclusive.

Tests used:
[1] = qHTS assay for identifying genotoxic compounds that show differential cytotoxicity against isogenic chicken DT40 cell lines with known DNA damage response pathways - wild type cell line (AID 743012); conditions: DT40 wild type chicken cells viability, CellTiter-Glo, 40 h; activity change, negative = cytotoxicity: at 68.4 µM (top of the series) unless noted; further: nearly all actives have a fitted effect of over 60% in size; further: potency means the concentration at half of the fitted maximal effect; on activity change, negative = cytotoxicity: on the % scale 0 is the no-effect control and ±100 the full control effect
Method in brief: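 300 wt DT40 cells/well; cpd (DMSO) pintool-transferred after ~0.5 h at 37 C/5% CO2; 40 h incubation; CellTiter-Glo added, 30 min RT; luminescence read.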

[2] = qHTS assay for identifying genotoxic compounds that show differential cytotoxicity against isogenic chicken DT40 cell lines with known DNA damage response pathways - Rev3 mutant cell line (AID 743014); conditions: chicken DT40 Rev3-/- viability, CellTiter-Glo, 40 h; activity, negative = cytotoxicity: at 68.4 µM (top of the series); further: nearly all actives have a fitted effect of over 55% in size; further: potency means the concentration at half of the fitted maximal effect; on activity, negative = cytotoxicity: on the % scale 0 is the no-effect control and ±100 the full control effect
[3] = qHTS assay to identify small molecule antagonists of the thyroid receptor (TR) signaling pathway - cell viability counter screen (AID 743064); conditions: GH3.TRE-Luc viability, CellTiter-Fluor, 24 h; activity change, negative = cytotoxic: at 70.3 µM (top of the series) unless noted; further: nearly all actives have a fitted effect of over 50% in size; further: potency means the concentration at half of the fitted maximal effect; on activity change, negative = cytotoxic: on the % scale 0 is the no-effect control and ±100 the full control effect
Method in brief: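 Counter screen for cytotoxicity: compound plus T3 (1 nM final) on GH3.TRE-Luc cells, 23.5 h at 37 °C, then fluorescence viability readout with CellTiter-Fluor.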

[4] = qHTS assay to identify small molecule antagonists of the androgen receptor (AR) signaling pathway - cell viability counter screen (AID 743033; further: nearly all actives have a fitted effect of over 45% in size; further: potency means the concentration at half of the fitted maximal effect); conditions: AR-bla HEK293 viability, CellTiter-Glo luminescence, 16 h; activity change, negative = cytotoxicity: at 58.5 µM (top of the series) unless noted
[5] = molecular target: Androgen receptor (Homo sapiens) (UniProt P10275); assay: qHTS assay to identify small molecule antagonists of the androgen receptor (AR) signaling pathway (AID 743035; active means well fitted inhibition curve with a large enough effect in the signal ratio in the repeat runs, not every such curve was filed as active; inconclusive means weak or mixed curves, or effect the other way; inactive means no such curve, though single readings can be large or run the other way; the % refers to the signal ratio; further: potency means the concentration at half of the fitted maximal effect); conditions: HEK293 AR-UAS-bla, R1881-stimulated, beta-lactamase FRET, 16 h; activity change, negative = inhibition: at 58.5 µM (top of the series) unless noted
Method in brief: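 In this cell-based reporter screen, compounds were tested in concentration series against R1881-activated HEK293 cells expressing beta-lactamase under UAS control; after 16 h at 37C, FRET substrate was added and fluorescence read 2 h later.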

[6] = qHTS assay to identify small molecule antagonists of the thyroid receptor (TR) signaling pathway (AID 743065); further: potency means the concentration at half of the fitted maximal effect; nearly all actives have a fitted effect of over 55% in size
Method in brief: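 Antagonism measured as loss of luciferase signal in GH3 cells stably carrying a TRE-luciferase reporter, co-treated with compound and T3 (1 nM final) for 23.5 h at 37 C. Viability was read in the same well by CellTiter-Fluor.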

[7] = tested on: thyroid hormone receptor (rat, GH3 cells); assay: qHTS assay to identify small molecule agonists of the thyroid receptor (TR) signaling pathway (AID 743066; calls by dose curve; further: on the % scale 0 is the no-effect control and ±100 the full control effect); conditions: GH3.TRE-Luc cells, TR agonist luciferase, 24 h; activation: at 83.9 µM (top of the series) unless noted
[8] = qHTS assay to identify small molecule antagonists of the androgen receptor (AR) signaling pathway using the MDA cell line - cell viability counter screen (AID 743041; further: nearly all actives have a fitted effect of over 45% in size; further: potency means the concentration at half of the fitted maximal effect); conditions: MDA-kb2 viability, CellTiter-Fluor, 16 h, cells co-treated with R1881 androgen agonist; viability change, negative = cytotoxic: at 70.3 µM (top of the series) unless noted
Method in brief: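 Viability read by CellTiter-Fluor fluorescence in the same wells as the antagonist screen, added after 15.5 h of a 16 h, 37C exposure. Human breast carcinoma MDA-kb2 AR-luc cells, compounds co-dosed with agonist R1881.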

[9] = qHTS assay to identify small molecule antagonists of the estrogen receptor alpha (ER-alpha) signaling pathway using the BG1 cell line - cell viability counter screen (AID 743081); conditions: BG1Luc4E2 viability, CellTiter-Fluor, 22 h; activity change, negative = cytotoxicity: at 70.3 µM (top of the series) unless noted;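 further: compound given together with 17beta-estradiol as the ER stimulus; nearly all actives have a fitted effect of over 45% in size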; further: potency means the concentration at half of the fitted maximal effect
[10] = molecular target: Androgen receptor (Homo sapiens) (UniProt P10275); assay: qHTS assay to identify small molecule agonists of the androgen receptor (AR) signaling pathway (AID 743036; active means well fitted activation curve with a large enough effect in the signal ratio in the repeat runs, with a control signal flat, not every such curve was filed as active; inconclusive means weak or mixed curves, or effect the other way; inactive means no such curve, though single readings can be large or run the other way; the % refers to the signal ratio; further: potency means the concentration at half of the fitted maximal effect); conditions: HEK293 AR-UAS-bla GripTite, beta-lactamase FRET ratio, 16 h; activation: at 62.4 µM (top of the series) unless noted
Method in brief: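 In this Tox21 qHTS, 2,000 HEK293 AR-bla cells per well were incubated with compounds for 16 h at 37C and 5% CO2. Fluorescence intensity was recorded 2 h after adding LiveBLAzer B/G FRET substrate at room temperature.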

[11] = molecular target: Estrogen receptor (Homo sapiens) (UniProt P03372); assay: qHTS assay to identify small molecule agonists of the estrogen receptor alpha (ER-alpha) signaling pathway using the BG1 cell line (AID 743079); conditions: BG1Luc4E2 cells, ERE-luciferase agonist, 22 h; activation: at 70.3 µM (top of the series) unless noted; further: nearly all actives have a fitted effect of over 20% in size; further: potency means the concentration at half of the fitted maximal effect
[12] = molecular target: Estrogen receptor (Homo sapiens) (UniProt P03372); assay: qHTS assay to identify small molecule antagonists of the estrogen receptor alpha (ER-alpha) signaling pathway (AID 743069; active means well fitted curve in the direction sought with a large enough effect in the signal ratio in the repeat runs, not every such curve was filed as active; inconclusive means weak or mixed curves, or effect the other way; inactive means no such curve, though single readings can be large or run the other way; the % refers to the signal ratio; further: potency means the concentration at half of the fitted maximal effect); conditions: HEK293 ER-alpha-UAS-bla, beta-lactamase ratio, antagonist mode; activity, negative = inhibition: at 69.4 µM (top of the series) unless noted
Method in brief: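 Antagonist mode: compounds in DMSO were co-added with 17beta-estradiol to ER-alpha-bla HEK293 cells (2% charcoal-stripped serum) and left 18 h at 37C. Reporter inhibition was measured as FRET fluorescence after 2 h LiveBLAzer substrate at room temperature.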

[13] = qHTS assay to identify small molecule antagonists of the estrogen receptor alpha (ER-alpha) signaling pathway using the BG1 cell line (AID 743080; calls by dose curve;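 further: BG1 cells stimulated with 17beta-estradiol alongside compound; on the % scale 0 is the no-effect control and ±100 the full control effect; nearly all actives have a fitted effect of over 25% in size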); conditions: BG1Luc4E2 ERE-luciferase antagonist mode, luminescence; activity change, negative = inhibition: at 70.3 µM (top of the series) unless noted
Method in brief: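 Luminescence from a 4×ERE-luciferase reporter in BG1-Luc-4E2 cells served as read-out. Cells, pre-cultured 5 days in stripped-serum phenol-red-free medium, were exposed to compound with 17beta-estradiol co-stimulation for 21.5 h at 37 C.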

[14] = qHTS assay to identify small molecule antagonists of the estrogen receptor alpha (ER-alpha) signaling pathway - cell viability counter screen (AID 743074; calls by dose curve;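 further: HEK293 cells carrying ER-alpha-UAS-bla reporter stimulated with 17beta-estradiol; nearly all actives have a fitted effect of over 45% in size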; further: potency means the concentration at half of the fitted maximal effect)
[15] = molecular target: Estrogen receptor (Homo sapiens) (UniProt P03372); assay: qHTS assay to identify small molecule agonists of the estrogen receptor alpha (ER-alpha) signaling pathway (AID 743075; calls by dose curve;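 further: HEK293 GripTite cells with ER-alpha and UAS-driven beta-lactamase reporter; potency means the concentration at half of the fitted maximal effect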)
Tags describe the fitted curve by direction and shape or compound fluorescence and quenching.

Sequence of UniProt P10275 (P10275 whole entry, looked up): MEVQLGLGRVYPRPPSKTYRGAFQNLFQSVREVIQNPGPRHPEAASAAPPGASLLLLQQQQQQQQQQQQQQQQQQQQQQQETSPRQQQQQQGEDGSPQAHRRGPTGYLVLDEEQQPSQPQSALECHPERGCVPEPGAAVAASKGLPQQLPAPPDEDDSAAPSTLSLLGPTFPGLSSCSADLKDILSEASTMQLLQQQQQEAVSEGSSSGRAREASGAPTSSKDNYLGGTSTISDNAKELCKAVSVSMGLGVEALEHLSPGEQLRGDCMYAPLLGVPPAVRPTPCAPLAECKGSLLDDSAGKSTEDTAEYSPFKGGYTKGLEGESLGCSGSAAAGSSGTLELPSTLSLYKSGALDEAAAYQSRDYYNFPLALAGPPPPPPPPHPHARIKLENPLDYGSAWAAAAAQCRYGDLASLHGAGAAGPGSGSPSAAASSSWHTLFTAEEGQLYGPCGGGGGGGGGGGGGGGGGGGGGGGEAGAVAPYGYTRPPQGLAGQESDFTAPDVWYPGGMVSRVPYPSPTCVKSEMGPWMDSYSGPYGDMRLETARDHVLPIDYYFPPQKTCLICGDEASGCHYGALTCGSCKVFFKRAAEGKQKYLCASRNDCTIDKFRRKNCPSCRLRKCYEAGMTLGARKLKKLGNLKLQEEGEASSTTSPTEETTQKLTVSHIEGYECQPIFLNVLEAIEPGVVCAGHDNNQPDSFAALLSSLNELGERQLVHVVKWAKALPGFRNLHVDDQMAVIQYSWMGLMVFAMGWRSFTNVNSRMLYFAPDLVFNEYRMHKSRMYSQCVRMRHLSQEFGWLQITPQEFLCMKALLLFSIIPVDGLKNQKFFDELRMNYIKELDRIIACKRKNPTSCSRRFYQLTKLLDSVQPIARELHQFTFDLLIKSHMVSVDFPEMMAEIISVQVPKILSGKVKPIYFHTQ
Sequence of UniProt P03372 (P03372 whole entry, looked up): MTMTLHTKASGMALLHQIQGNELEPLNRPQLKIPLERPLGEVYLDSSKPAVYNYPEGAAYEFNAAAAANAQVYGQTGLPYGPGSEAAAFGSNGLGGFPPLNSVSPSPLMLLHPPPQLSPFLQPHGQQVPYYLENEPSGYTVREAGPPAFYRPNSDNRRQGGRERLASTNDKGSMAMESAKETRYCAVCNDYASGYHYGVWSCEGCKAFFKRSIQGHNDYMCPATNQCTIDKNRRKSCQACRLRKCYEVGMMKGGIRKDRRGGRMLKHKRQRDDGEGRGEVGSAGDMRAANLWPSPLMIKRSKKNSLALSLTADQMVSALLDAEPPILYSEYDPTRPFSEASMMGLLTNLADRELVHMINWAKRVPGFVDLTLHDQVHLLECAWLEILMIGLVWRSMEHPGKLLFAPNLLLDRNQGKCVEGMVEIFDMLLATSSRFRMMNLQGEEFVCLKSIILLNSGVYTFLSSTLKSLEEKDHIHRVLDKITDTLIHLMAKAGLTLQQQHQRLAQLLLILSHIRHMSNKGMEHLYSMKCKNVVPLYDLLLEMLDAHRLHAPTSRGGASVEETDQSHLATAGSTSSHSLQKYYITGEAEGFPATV

Compound: CCCCCCCOC(=O)CCC
- Potency [1]: inconclusive: 0.864 µM [rising, single point]
- Potency [2]: inconclusive: 21.7 µM [cytotoxic, full curve]
- Potency [3]: inactive

Compound: CCCCCCCCCCCCCC
- Potency [1]: inactive
- Potency [2]: inactive
- activity change, negative = cytotoxicity [4]: inconclusive: -32.1% [cytotoxic]
- Potency [3]: inconclusive: 34.4 µM [rising, single point]

Compound: C=CC(C)(O)CC/C=C(/C)CCC=C(C)C (configuration not stated)
- Potency [1]: inconclusive: 68.6 µM [cytotoxic]
- Potency [2]: active: 54.5 µM
- Potency [4]: inactive

Compound: N#Cc1ccc(C(=O)O)cc1
- Potency [1]: inconclusive: 68.6 µM [cytotoxic, single point]
- Potency [2]: active: 30.6 µM
- Potency [5]: inactive

Compound: CCO[C@@H]1O[C@H](C(COCc2ccccc2)OCc2ccccc2)[C@H](OCc2ccccc2)[C@H]1O (some centres not stated)
- Potency [1]: inconclusive: 12.7 µM [cytotoxic, single point]
- Potency [2]: inconclusive: 14.3 µM [cytotoxic, single point]
- Potency [4]: inactive
- Potency [6]: inconclusive: 12.7 µM [inhibitor, single point]
- activation [7]: inconclusive: -9.46% [phenotype inactive] [at 39.4 µM]

Compound: c1ccc2sc(SSN3CCOCC3)nc2c1
- Potency [1]: inconclusive: 6.84 µM [cytotoxic, full curve, poor fit] and active: 2.43 µM
- Potency [2]: active: 9.67 µM and active: 2.73 µM
- Potency [4]: inconclusive: 49 µM [cytotoxic, partial curve, poor fit]
- Potency [8]: inconclusive: 27.3 µM [cytotoxic, full curve]
- viability change, negative = cytotoxic [8]: inconclusive: 34.3%
- Potency [7]: inactive
- Potency [9]: inactive

Compound: COc1ccc2cc1Oc1ccc(cc1)C[C@H]1c3c(cc4c(c3Oc3cc5c(cc3OC)CCN(C)[C@@H]5C2)OCO4)CCN1C
- Potency [1]: active: 7.5 µM
- Potency [2]: active: 8.41 µM
- Potency [4]: inconclusive: 23.9 µM [cytotoxic, partial curve]
- activity change, negative = inhibition [5]: inconclusive: -93.5%
- Potency [10]: inconclusive: 21.3 µM [activator, single point]
- Potency [8]: inconclusive: 29.8 µM [cytotoxic]
- Potency [11]: inactive
- Potency [9]: inconclusive: 15 µM [cytotoxic, partial curve]

Compound: NC(=O)N1c2ccccc2C=Cc2ccccc21
- Potency [1]: inconclusive: 23.7 µM [cytotoxic, partial curve] and inactive and active: 30.6 µM
- Potency [2]: inconclusive: 68.2 µM [cytotoxic] and active: 30.6 µM
- activity, negative = inhibition [12]: inconclusive: 20.3%

Compound: CC(=O)O[C@@H]1CC2CCC1(C)C2(C)C (some centres not stated)
- Potency [1]: inactive
- Potency [2]: inactive
- Potency [10]: inactive

Compound: CCOC(=O)c1ccc(OC(=O)CCCCCN=C(N)N)cc1
- Potency [1]: inconclusive: 14.3 µM [rising, partial curve, poor fit]
- Potency [2]: inconclusive: 11.4 µM [rising, partial curve, poor fit]
- Potency [4]: inconclusive: 0.0026 µM [cytotoxic, full curve, poor fit]
- Potency [3]: inactive
- Potency [11]: active: 14.3 µM
- Potency [9]: inactive

Compound: CN1CCC(N(Cc2cccs2)c2ccccc2)CC1
- Potency [1]: active: 9.44 µM
- Potency [2]: active: 11.9 µM
- Potency [3]: active: 11.9 µM
- Potency [9]: inactive

Compound: [Cl][Pt-2]([Cl])([Cl])[Cl]
- Potency [1]: inconclusive: 24.4 µM [rising, partial curve]
- Potency [2]: inconclusive: 68.9 µM [cytotoxic, single point]
- Potency [3]: inconclusive: 0.137 µM [rising, full curve, poor fit]
- Potency [13]: inactive

Compound: CNCCCN1c2ccccc2CCc2ccccc21
- Potency [1]: active: 4.52 µM
- Potency [2]: active: 16 µM
- activity change, negative = inhibition [5]: inconclusive: 9.06% [at 27 µM]
- Potency [3]: active: 8.04 µM
- activation [7]: inconclusive: -7.81% [phenotype inactive] [at 39.4 µM]
- Potency [14]: inactive
- Potency [11]: inactive

Compound: O=C1OC(=O)c2cccc3cccc1c23
- Potency [1]: inconclusive: 49 µM [cytotoxic, single point]
- Potency [2]: active: 15.5 µM
- Potency [6]: inconclusive: 19.5 µM [inhibitor, partial curve, poor fit]

Compound: O=S(=O)(O)c1ccc(Nc2nc(Nc3ccc(/C=C/c4ccc(Nc5nc(Nc6ccc(S(=O)(=O)O)cc6)nc(N(CCO)CCO)n5)cc4S(=O)(=O)O)c(S(=O)(=O)O)c3)nc(N(CCO)CCO)n2)cc1
- Potency [1]: inconclusive: 11.6 µM [rising, full curve, poor fit]
- Potency [2]: inactive
- Potency [5]: inconclusive: 26.3 µM [rising, partial curve]
- Potency [10]: active: 33.1 µM
- Potency [3]: inconclusive: 41.3 µM [rising, partial curve]
- Potency [12]: inconclusive: 29.5 µM [fluorescent]
- Potency [14]: inconclusive: 0.209 µM [rising, full curve, poor fit]
- Potency [15]: inconclusive: 33 µM [activator]
- Potency [9]: inconclusive: 46.3 µM [rising, partial curve, poor fit]
